Test results as given in PubChem BioAssay AID624171 (National Center for Advancing Translational Sciences (NCATS), 2012).
Hit rate of the full screen: of about 410,000 compounds, about 1,200 (0.29%) were called active. This list was built around the results that the source calls inconclusive (neither active nor inactive); the mix of calls is not that of the screen. Calls follow the shape of the dose curve; as a rule, active = well fitted activation curve with a large enough effect; inconclusive = small, poorly fitted or top-dose-only effect; inactive = flat fitted curve, though single readings scatter. Potencies of inconclusive entries are doubtful fits and often do not repeat.

test: qHTS of Nrf2 Activators; conditions: AREc32 ARE-luciferase reporter (MCF7-derived line), luminescence, 24 h; activation: at 46.1 µM (top of the series); also: nearly all actives have a fitted effect of over 65% in size; as to activation: % of control where 0% means no effect
Text: Many diseases have some form of oxidative stress injury and ties to inflammation, causing a host of problems for the patient. The antioxidant response element (ARE) plays an important role in alleviating the harmful effects of oxidative stress. The antioxidant response element (ARE) is a transcriptional regulatory element involved in the activation of genes coding for a number of antioxidant proteins and detoxifying enzymes. These enzymes work in concert to protect tissues from oxidative insults and chemical toxicities in human hepatocytes and immune cells. The protective effects of ARE activation are primarily triggered through Nrf2 (NF-E2-related factor) binding to and activating AREs. It is known that Nrf2 controls the production of over 250 antioxidant and detoxification proteins (Hu et al., 2006), thereby protecting tissues by increasing cellular antioxidant content and suppressing inflammatory signaling pathways. The transcription factor Nrf2 is a central link between oxidative chemicals, such as phenolic antioxidants and electrophilic compounds, and the activation of ARE. Nrf2 levels are constitutively low as a consequence of its interaction with Keap1, which targets its degradation (Zipper and Mulcahy, 2002). Electrophiles react with key cysteine residues in Keap1, releasing Nrf2 and allowing its translocation to the nucleus. Once within the nucleus, Nrf2 complexes with coactivators such as p300, and binds to the AREs to induce gene transcription of cytoprotective enzymes, resulting in the prevention of toxicity. Activation of Nrf2 protects tissues by increasing cellular antioxidant content and suppressing inflammatory signaling pathways. Identifying novel and potent Nrf2 activators by using the AREc32 cell line to detect ARE activation by small molecules will lead to the identification and development of probes to study protective pathways in multiple tissues. These specific probes are essential to study the ARE pathway, and eventually to determine whether this pathway does activate genes that could protect against a host of diseases, including cardiovascular diseases, obesity, diabetes, Alzheimer's, and Parkinson's disease.
This project's aim is to identify novel and potent Nrf2 activators by using the AREc32 cell line to detect ARE activation by small molecules, which will lead to the identification and development of probes to study the ARE pathway.
NIH Chemical Genomics Center [NCGC]
NIH Molecular Libraries Probe Centers Network [MLPCN]
Assay Submitter (PI): Curtis Klaassen, University of Kansas Medical Center
5 uL of 1000 cells/well of AREc32_Fluc cells are seeded into 1536-well plate in OPTI-MEM medium with 5% FBS. The plates are incubated overnight at 37 deg C with 5% CO2. Then through pin tool transfer, 23 nL of compounds are added to each well before a 24 hr incubation at 37 deg C with 5% CO2. After the addition of 2.5 uL of Steady-Glo. the plates are kept at RT for 30 min, before they are read on the ViewLux.
Potency is read from the fitted curve at half-maximal effect; tags tell the direction and shape of the fitted curve.

| SMILES | Potency | activation |
| --- | --- | --- |
| CC(=O)c1ccc(-n2c(-c3cc(-c4ccsc4)n[nH]3)n[nH]c2=S)cc1 | inconclusive: 14.1 µM [activator, single point] | – |
| Cc1ccc(CSCCC(=O)NCc2ccc(F)cc2Cl)cc1 | – | inactive: -0.129% |
| O=C(CC(=O)c1ccccc1)Nc1cc([N+](=O)[O-])ccc1Cl | inconclusive: 11.2 µM [activator, partial curve] | – |
| O=C(c1ccco1)N(CCCN1CCOCC1)c1nc(-c2ccc(Cl)cc2)cs1 | – | inactive: 3.53% |
| COc1ccc2[nH]cc(/C=C/C(=O)c3ccccc3)c2c1 | inconclusive: 22.4 µM [activator, single point] | – |
| CCC(=O)Nc1cccc(C(=O)/C=C/c2cccs2)c1 | inconclusive: 17.8 µM [activator, single point] | – |
| CCOC(=O)c1ccc2c(c1)n(CC)c(/C=C/Nc1ccccc1)[n+]2CC | – | inactive: -0.268% |
| CCOc1cc(-c2ccc(OC(=O)c3ccc(OC)cc3)c(OC)c2)cc(=O)c2c(C)oc(C)c12 | inconclusive: 35.5 µM [activator, partial curve, poor fit] | – |
| Cc1cc(NC(=S)NC(=O)c2ccco2)c2ccccc2n1 | inconclusive: 3.16 µM [activator, full curve] | – |
| COCC(=O)Nc1cccc(-c2nc3cccnc3s2)c1 | inconclusive: 14.1 µM [activator, partial curve, poor fit] | – |
| COc1ccc(C(=O)CCNc2ccc3c(c2)OCCO3)cc1 | inconclusive: 17.8 µM [activator, single point] | – |
| CC1CCCCC1NS(=O)(=O)c1ccc(S(=O)(=O)NCc2ccncc2)cc1 (stereo not drawn) | – | inactive: -0.518% |
| Cc1ccc(-c2nnc(Nc3ccc(F)cc3)c3ccccc23)cc1S(=O)(=O)N1CCN(C)CC1 | – | inactive: 3.01% |
| O=C(Nc1ccccc1O)c1ccc2c(c1)C(=O)N(Cc1ccco1)C2=O | inconclusive: 22.4 µM [activator, single point] | – |
| C/C(=N\Nc1ccc2nncn2n1)c1ccc(Br)s1 | inconclusive: 2 µM [activator, full curve, poor fit] | – |
| Cn1c(SCc2nc3ccccc3s2)nnc1-c1ccc2c(c1)OCO2 | inconclusive: 35.5 µM [activator, partial curve, poor fit] | – |
| O=C(O)c1cccc(NC(=S)NC(=O)c2cncc(Br)c2)c1 | – | inactive: 0.336% |
| COc1cc(OCc2ccccc2)c2c(CCC(=O)O)cc(=O)oc2c1 | inconclusive: 12.6 µM [activator, partial curve] | – |
| S=c1[nH]nc(-c2ccco2)n1-c1cccc2ccccc12 | – | inactive: -0.205% |

| SMILES | Potency | activation |
| --- | --- | --- |
| CSc1[nH]c(=O)c(C(=O)O)cc1C#N | – | inactive: 2.05% |
| CC1C(=O)NN=C1C(=O)N/N=C\C(Br)=C\c1ccccc1 (stereo not drawn) | active: 11.2 µM | – |
| COc1ccc(CS(=O)(=O)/C(Cl)=C(/Cl)C(=O)Nc2ccc(OC)nc2)cc1 | inconclusive: 2.82 µM [activator, partial curve, poor fit] | – |
| C/C(=N\NC(=O)c1ccc(Cl)cc1)c1ccccn1 | inconclusive: 11.2 µM [activator, partial curve, poor fit] | – |
| COC(=O)c1sc(=S)sc1C(=O)OC | inconclusive: 22.4 µM [activator, single point] | – |
| COc1ccc(N(C(=O)CCl)C(C(=O)NC2CCCCC2)c2cccnc2)cc1 (stereo not drawn) | inconclusive: 11.2 µM [activator, partial curve, poor fit] | – |
| Cc1nnc(NC(=O)CSc2nccn2Cc2ccc(Cl)cc2)s1 | – | inactive: 3.78% |
| COc1cccc(/C=N/n2c(N)nc3ccccc32)c1OC | – | inactive: 3.37% |
| CCOP(=O)(Nc1cccc2oc(=O)c3ccccc3c12)OCC | inconclusive: 11.2 µM [activator, partial curve, poor fit] | – |
| O=C(NCc1ccc2c(c1)OCO2)c1cc(-c2ccccc2)c(N2CCOCC2)s1 | – | inactive: -0.104% |
| COc1ccc(-c2csc3ncnc(N4CCN(S(=O)(=O)c5ccc(C(C)=O)cc5)CC4)c23)cc1 | inconclusive: 15.8 µM [activator, single point] | – |
| N=c1oc2ccccc2cc1C(=O)Nc1cccc(F)c1 | inconclusive: 25.1 µM [activator, single point] | – |
| CC(C)CCNC(=O)C(c1ccco1)N(Cc1ccccc1)C(=O)c1snc(C(N)=O)c1N (stereo not drawn) | – | inactive: -0.483% |
| O=C(CSc1nc2c([nH]c3ccccc32)c(=O)n1-c1cccc(C(F)(F)F)c1)N1CCc2ccccc21 | – | inactive: -0.59% |
| O=C(CSc1cccc2cccnc12)N1CCCC1 | inconclusive: 3.55 µM [activator, single point] | – |
| Oc1ccc(-c2csc(Nc3ccccn3)n2)cc1O | inconclusive: 10 µM [activator, partial curve] | – |
| Cc1ccc2nc(SCc3nc4ccccc4c(=O)[nH]3)[nH]c2c1 | inconclusive: 28.2 µM [activator, single point] | – |
| CC(C)[C@H](NC(=O)c1ccccc1Cl)C(=O)OCc1cc([N+](=O)[O-])cc2c1OCOC2 | – | inactive: 3.96% |
| O=C(c1cccn1-c1nnc(N2CCCC2)s1)N1CCN(c2ccc(Cl)cc2)CC1 | – | inactive: 3.89% |
